The subject of one experiment is inflamed knee joint. To be noted: naloxone alone.
Experiment [1] has as its system tape stripping induced hyperalgesia.

Structures are written as SMILES. Where a name gives a salt, the structure may show the parent alone.

In the case of `C=CCN1CC[C@]23c4c5ccc(O)c4O[C@H]2C(=O)CC[C@@]3(O)[C@H]1C5` [naloxone, naloxone HCl], the “effect upon compression-evoked change in BP” value in the experiment on inflamed knee joint is given as “without effect”.

On to `CN(C)C(=O)C(CCN1CCC(O)(c2ccc(Cl)cc2)CC1)(c1ccccc1)c1ccccc1` [loperamide, 4-(p-chlorophenyl)-4-hydroxy-N-N-dimethyl-α,α-diphenyl-1-piperidinebutyramide hydrochloride], for which the “antinociception (paw pressure threshold)” value in experiment [1] (100 μg i.paw, at 15 min, 30 min, and 1 hour following injection) is reported as “Antinociception was observed”. In experiment [1] (measured at 15 min after intrapaw injection, 24 hours following tape stripping), the “ED50, antagonism of tape stripping induced hyperalgesia” value was 72 µg. Also, in the experiment with FCA-induced hyperalgesia (at up to 300 μg), the “antinociception in the uninflamed paw” value is “No antinociception”. In addition, the “ED50, antihyperalgesia (paw pressure threshold)” value with FCA-induced hyperalgesia (i.pl. 24 hours after FCA, evaluated at 2 hours following injection) stood at 20 µg.

As to `CN(C)C(=O)C(CCN1CCC(O)(c2ccc(Cl)cc2)CC1)(c1ccccc1)c1ccccc1` [Ioperamide], in experiment [1] (intrapaw), the “Tape Stripping-Induced Inflammation % Maximal Efficacy” value was 80% and the “Tape Stripping-Induced Inflammation ED50” value worked out at 71 μg i. paw.

The record behind these values is patent publication US6573282B1 (priority 1995, dated 2003).
